Data reported in a compilation of properties of binary mixtures (doi:10.1016/j.molliq.2016.04.040).
The densities may have been worked out from excess volumes.

Assay: xn = mol fraction of the nth substance listed
Conditions: 100 kPa

CC(=O)[O-].CCC[NH3+] + O
mass density [kg/m3]
Conditions	293.15 K	298.15 K	303.15 K	308.15 K	313.15 K	318.15 K	323.15 K	328.15 K	333.15 K
x2 = 0	989.9	986.9	983.8	980.7	977.6	974.6	–	968.4	965.3
x2 = 0.0494	995.1	991.9	988.7	985.6	982.4	979.2	976	972.9	969.7
x2 = 0.1004	998.2	995.1	992	988.9	985.8	982.7	–	976.5	973.4
x2 = 0.2096	1003.6	1000.4	997.2	–	990.9	987.7	–	981.3	–
x2 = 0.2992	1007.4	1004.3	–	998.1	994.9	991.8	988.7	985.6	982.3
x2 = 0.3878	1011	1008	1004.9	1001.8	998.7	995.5	992.4	989.2	–
x2 = 0.5035	1016	1013	1010	1006.9	1003.8	1000.6	997.5	994.3	–
x2 = 0.6067	1020.1	1017	1013.8	–	1007.5	1004.3	–	–	994.7
x2 = 0.6965	1023.9	1020.7	1017.6	1014.4	–	1008	1004.8	1001.6	998.3
x2 = 0.7999	1027.8	1024.7	1021.6	1018.5	1015.3	1012.1	1008.9	1005.6	1002.3
x2 = 0.9022	1025.9	1022.6	1019.7	1016.4	1013.4	1010.3	1006.9	1003.5	–

CCC[NH3+].O=C[O-] + O
mass density [kg/m3]
Conditions	293.15 K	298.15 K	303.15 K	308.15 K	313.15 K	318.15 K	323.15 K	328.15 K	333.15 K
x2 = 0	996.1	993.4	990.8	988.1	985.4	982.7	980.1	977.4	974.8
x2 = 0.0505	997.7	994.9	992.2	989.5	986.8	–	981.4	978.7	976.1
x2 = 0.1036	999.1	996.4	993.7	991	988.3	985.6	983	980.3	977.6
x2 = 0.2456	1004	–	998.6	–	–	990.5	987.8	–	–
x2 = 0.2838	–	1003	1000.3	997.6	994.8	992.1	–	986.7	–
x2 = 0.429	1012.7	1009.8	–	–	1001.6	998.8	996.1	993.4	990.6
x2 = 0.5184	1017.9	–	1012.3	1009.4	1006.6	1003.8	1000.9	998.1	–
x2 = 0.6064	–	–	1017.1	1014.2	1011.4	1008.6	1005.7	–	1000
x2 = 0.6994	1027.1	1024.3	1021.4	1018.6	1015.7	1012.9	1010	1007.1	1004.1
x2 = 0.8008	1030.6	1027.8	1025.1	–	1019.3	–	1013.6	1010.6	1007.7
x2 = 0.9026	1027.2	1024.8	–	1019.6	1017	1014.2	1011.4	1008.6	1005.7

CCC[NH3+].O=C[O-] + CN1CCCC1=O
mass density [kg/m3]
Conditions	293.15 K	298.15 K	303.15 K	308.15 K	313.15 K	318.15 K	323.15 K	328.15 K	333.15 K
x2 = 0	–	993.4	–	988.1	985.4	982.7	980.1	977.4	974.8
x2 = 0.0494	999.6	996.7	993.9	–	988.3	985.5	–	980	977.2
x2 = 0.1047	1002.5	999.5	996.7	993.8	–	988.1	985.3	982.5	979.6
x2 = 0.1953	1006.9	1003.9	1000.7	997.8	994.8	991.8	988.7	985.7	982.7
x2 = 0.3021	–	1008.2	1005.1	–	998.7	995.5	992.3	989	985.8
x2 = 0.4205	1016.6	–	–	1006.2	1002.8	999.4	995.9	992.5	989
x2 = 0.5063	1019.6	1016	1012.5	1008.9	1005.3	–	998.1	994.6	990.9
x2 = 0.6001	1022.8	1018.9	1015.2	1011.5	1007.8	1004	–	–	992.7
x2 = 0.7075	1026.2	1022.3	1018.3	1014.5	1010.5	1006.5	1002.6	998.6	–
x2 = 0.7986	–	–	1020.7	1016.5	–	1008.4	1004.3	1000.1	–
x2 = 0.9048	–	1026.9	1022.4	–	1013.9	1009.7	1005.3	1001	996.6

CC(=O)[O-].CCC[NH3+] + CN1CCCC1=O
mass density [kg/m3]
Conditions	293.15 K	298.15 K	303.15 K	308.15 K	313.15 K	318.15 K	323.15 K	328.15 K	333.15 K
x2 = 0	989.9	986.9	–	980.7	977.6	–	–	968.4	–
x2 = 0.05	990.6	987.3	–	980.8	–	974.3	971.1	967.9	964.6
x2 = 0.0978	991.3	988.1	984.8	981.5	978.3	975	971.7	968.4	965.2
x2 = 0.1978	994.9	991.5	988.1	984.7	–	977.9	974.6	971.2	967.8
x2 = 0.3095	999.7	996.2	992.6	989.1	985.5	–	–	974.9	971.2
x2 = 0.3891	1003.3	999.7	996	992.4	988.7	985.1	–	–	973.8
x2 = 0.4931	1008.1	1004.4	1000.6	996.8	993	989.1	985.3	981.4	977.4
x2 = 0.599	1013.2	1009.3	–	1001.4	997.4	993.4	989.4	985.4	–
x2 = 0.7001	1018.4	1014.3	–	1006.1	1001.9	–	993.5	989.2	984.9
x2 = 0.7998	–	1019.4	1015.1	1010.8	–	1002.1	–	–	988.7
x2 = 0.891	–	1023.9	1019.5	1015	1010.5	1006	1001.5	996.9	992.3
